According to the supplement of paper PMC4604168 (melanoma cell lines):
This is one part of the list. Most values come without repeats; read them as rough.

tested on: RPMI7951; test: cell count relative to DMSO control; melanoma cells; higher = more viable cells; conditions: library dose: low library concentration; 72 h
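Note: cell number obtained by counting DAPI-stained nuclei in high-throughput microscope images with image analysis software, screen run in 1,536-well plates.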

SMILES	cell count [%]
COc1ccc(C2=N[C@@H](c3ccc(Cl)cc3)[C@@H](c3ccc(Cl)cc3)N2C(=O)N2CCNC(=O)C2)c(OC(C)C)c1 [Nutlin-3] + c1cc(-c2cnn3cc(-c4ccc(OCCN5CCCCC5)cc4)cnc23)ccn1 [Dorsomorphin] (first compound 0.1 µM, partner dose 0.4 µM)	104
Cn1c(=O)n(-c2ccc(C(C)(C)C#N)cc2)c2c3cc(-c4cnc5ccccc5c4)ccc3ncc21 + COc1cc(N2CCC(N3CCN(C)CC3)CC2)ccc1Nc1ncc(Cl)c(Nc2ccccc2S(=O)(=O)C(C)C)n1 [NVP-TAE684] (first compound 0.004 µM, partner dose 0.08 µM)	85.7
COc1ccc(C2=N[C@@H](c3ccc(Cl)cc3)[C@@H](c3ccc(Cl)cc3)N2C(=O)N2CCNC(=O)C2)c(OC(C)C)c1 [Nutlin-3] + COc1cc2c(Oc3ccc4[nH]c(C)cc4c3F)ncnc2cc1OCCCN1CCCC1 [cediranib] (first compound 0.1 µM, partner dose 0.4 µM)	109
CC(C)C[C@H](NC(=O)[C@H](Cc1ccccc1)NC(=O)c1cnccn1)B(O)O [Bortezomib] + NC(=O)Nc1cc(-c2cccc(F)c2)sc1C(=O)N[C@H]1CCCNC1 [AZD7762] (first compound 0.001 µM, partner dose 0.02 µM)	67.8
CC(C)C[C@H](NC(=O)[C@H](Cc1ccccc1)NC(=O)c1cnccn1)B(O)O [Bortezomib] + O=C(O)c1ccc(-c2c[nH]c3ncc(-c4ccccc4)cc23)cc1C1CCCC1 [GSK650394] (first compound 0.001 µM, partner dose 0.16 µM)	77.1
COc1ccc(C2=N[C@@H](c3ccc(Cl)cc3)[C@@H](c3ccc(Cl)cc3)N2C(=O)N2CCNC(=O)C2)c(OC(C)C)c1 [Nutlin-3] + O=C1NC(=O)/C(=C/c2ccc(-c3ccc(F)cc3O)o2)S1 [AS252424] (first compound 0.1 µM, partner dose 1 µM)	96.4
Cn1c(=O)n(-c2ccc(C(C)(C)C#N)cc2)c2c3cc(-c4cnc5ccccc5c4)ccc3ncc21 + NCC(=O)Nc1ccc(-n2nc(C(F)(F)F)cc2-c2ccc3c(ccc4ccccc43)c2)cc1 [OSU03012] (first compound 0.004 µM, partner dose 1 µM)	95.8
CC(C)C[C@H](NC(=O)[C@H](Cc1ccccc1)NC(=O)c1cnccn1)B(O)O [Bortezomib] + O=C(Nc1ccccc1)c1cc([N+](=O)[O-])ccc1Cl [GW9662] (first compound 0.001 µM, partner dose 2 µM)	87.1
COc1ccc(C2=N[C@@H](c3ccc(Cl)cc3)[C@@H](c3ccc(Cl)cc3)N2C(=O)N2CCNC(=O)C2)c(OC(C)C)c1 [Nutlin-3] + Cn1cc(/C=C2\C(=O)Nc3cccnc32)c2ccccc21 [GW441756] (first compound 0.1 µM, partner dose 0.4 µM)	102
Cn1c(=O)n(-c2ccc(C(C)(C)C#N)cc2)c2c3cc(-c4cnc5ccccc5c4)ccc3ncc21 + OCCn1cc(-c2cnc3nnn(Cc4ccc5ncccc5c4)c3n2)cn1 [PF04217903] (first compound 0.004 µM, partner dose 1 µM)	85.6
Cc1cn(-c2cc(NC(=O)c3ccc(C)c(Nc4nccc(-c5cccnc5)n4)c3)cc(C(F)(F)F)c2)cn1 [nilotinib] + Oc1nc(-c2ccc(C(F)(F)F)cc2)nc2c1CSCC2 [XAV939] (first compound 0.2 µM, partner dose 2 µM)	88.9
COc1ccc(C2=N[C@@H](c3ccc(Cl)cc3)[C@@H](c3ccc(Cl)cc3)N2C(=O)N2CCNC(=O)C2)c(OC(C)C)c1 [Nutlin-3] + CO[C@@H]1[C@H](N(C)C(=O)c2ccccc2)C[C@H]2O[C@]1(C)n1c3ccccc3c3c4c(c5c6ccccc6n2c5c31)C(=O)NC4 [Midostaurin] (first compound 0.1 µM, partner dose 0.08 µM)	97.2
COc1ccc(C2=N[C@@H](c3ccc(Cl)cc3)[C@@H](c3ccc(Cl)cc3)N2C(=O)N2CCNC(=O)C2)c(OC(C)C)c1 [Nutlin-3] + C[C@@H]1CCN(C(=O)CC#N)C[C@@H]1N(C)c1ncnc2[nH]ccc12 [CP690550] (first compound 0.1 µM, partner dose 1 µM)	115
Cc1cn(-c2cc(NC(=O)c3ccc(C)c(Nc4nccc(-c5cccnc5)n4)c3)cc(C(F)(F)F)c2)cn1 [nilotinib] + Cn1cncc1[C@@](N)(c1ccc(Cl)cc1)c1ccc2c(c1)c(-c1cccc(Cl)c1)cc(=O)n2C [tipifarnib] (first compound 0.2 µM, partner dose 0.01 µM)	88.3
CC(C)C[C@H](NC(=O)[C@H](Cc1ccccc1)NC(=O)c1cnccn1)B(O)O [Bortezomib] + CC(C)CCN1c2nc(Nc3cc(F)c(O)c(F)c3)ncc2N(C)C(=O)C1C [BID1870] (first compound 0.001 µM, partner dose 0.2 µM)	84.7
Cc1cn(-c2cc(NC(=O)c3ccc(C)c(Nc4nccc(-c5cccnc5)n4)c3)cc(C(F)(F)F)c2)cn1 [nilotinib] + O=C(CCCCCCC(=O)Nc1ccccc1)NO [vorinostat] (first compound 0.2 µM, partner dose 0.08 µM)	92.7
Cn1c(=O)n(-c2ccc(C(C)(C)C#N)cc2)c2c3cc(-c4cnc5ccccc5c4)ccc3ncc21 + O=C1NC(=O)/C(=C/c2ccc(-c3ccc(F)cc3O)o2)S1 [AS252424] (first compound 0.004 µM, partner dose 1 µM)	95.4
CC(C)C[C@H](NC(=O)[C@H](Cc1ccccc1)NC(=O)c1cnccn1)B(O)O [Bortezomib] + COc1ccc(-c2ccc3c(N4CCOCC4)nc(N4C[C@@H](C)O[C@@H](C)C4)nc3n2)cc1CO [KU0063794] (first compound 0.001 µM, partner dose 0.02 µM)	58.9
Cc1cc(Nc2cc(N3CCN(C)CC3)nc(/C=C/c3ccccc3)n2)n[nH]1 + CC(C)(C)c1cnc(CSc2cnc(NC(=O)C3CCNCC3)s2)o1 [SNS-032] (first compound 0.04 µM, partner dose 0.01 µM)	95
Cc1cc(Nc2cc(N3CCN(C)CC3)nc(/C=C/c3ccccc3)n2)n[nH]1 + O=C(O)c1ccc(-c2c[nH]c3ncc(-c4ccccc4)cc23)cc1C1CCCC1 [GSK650394] (first compound 0.04 µM, partner dose 0.16 µM)	110
Cc1cn(-c2cc(NC(=O)c3ccc(C)c(Nc4nccc(-c5cccnc5)n4)c3)cc(C(F)(F)F)c2)cn1 [nilotinib] + COC(=O)c1sccc1S(=O)(=O)Nc1ccc(Nc2ccccc2)cc1OC [GSK0660] (first compound 0.2 µM, partner dose 1 µM)	97.2
Cn1c(=O)n(-c2ccc(C(C)(C)C#N)cc2)c2c3cc(-c4cnc5ccccc5c4)ccc3ncc21 + CO[C@@H]1[C@H](N(C)C(=O)c2ccccc2)C[C@H]2O[C@]1(C)n1c3ccccc3c3c4c(c5c6ccccc6n2c5c31)C(=O)NC4 [Midostaurin] (first compound 0.004 µM, partner dose 0.08 µM)	85.5
Cc1cn(-c2cc(NC(=O)c3ccc(C)c(Nc4nccc(-c5cccnc5)n4)c3)cc(C(F)(F)F)c2)cn1 [nilotinib] + NC(=O)Nc1cc(-c2cccc(F)c2)sc1C(=O)N[C@H]1CCCNC1 [AZD7762] (first compound 0.2 µM, partner dose 0.02 µM)	83.9
COc1ccc(C2=N[C@@H](c3ccc(Cl)cc3)[C@@H](c3ccc(Cl)cc3)N2C(=O)N2CCNC(=O)C2)c(OC(C)C)c1 [Nutlin-3] + O=c1cc(-c2cccc3c2Sc2ccccc2S3)oc(N2CCOCC2)c1 [KU55933] (first compound 0.1 µM, partner dose 1 µM)	113
Cc1cn(-c2cc(NC(=O)c3ccc(C)c(Nc4nccc(-c5cccnc5)n4)c3)cc(C(F)(F)F)c2)cn1 [nilotinib] + O=S(=O)(c1ccccc1)N(CC(F)(F)F)c1ccc(C(O)(C(F)(F)F)C(F)(F)F)cc1 [T0901317] (first compound 0.2 µM, partner dose 1.4 µM)	102
Cc1cc(Nc2cc(N3CCN(C)CC3)nc(/C=C/c3ccccc3)n2)n[nH]1 + Cc1ccc(NC(=O)c2cccc(N(C)C)c2)cc1NC(=O)c1ccc(O)cc1 [ZM336372] (first compound 0.04 µM, partner dose 2 µM)	82.7
Cn1c(=O)n(-c2ccc(C(C)(C)C#N)cc2)c2c3cc(-c4cnc5ccccc5c4)ccc3ncc21 + c1cc(-c2cnn3cc(-c4ccc(OCCN5CCCCC5)cc4)cnc23)ccn1 [Dorsomorphin] (first compound 0.004 µM, partner dose 0.4 µM)	78.7
COc1ccc(C2=N[C@@H](c3ccc(Cl)cc3)[C@@H](c3ccc(Cl)cc3)N2C(=O)N2CCNC(=O)C2)c(OC(C)C)c1 [Nutlin-3] + Oc1nc(-c2ccc(C(F)(F)F)cc2)nc2c1CSCC2 [XAV939] (first compound 0.1 µM, partner dose 2 µM)	78.4
Cc1cc(Nc2cc(N3CCN(C)CC3)nc(/C=C/c3ccccc3)n2)n[nH]1 + CCN(CC)CCCCNc1ncc2cc(-c3cc(OC)cc(OC)c3)c(NC(=O)NC(C)(C)C)nc2n1 [PD173074] (first compound 0.04 µM, partner dose 0.1 µM)	88.7
